# Measurements reported in the supplement of paper PMC4604168 (melanoma cell lines).
# Some of the results follow. Single values are uncertain, as repeats are few or missing.
# System: LOXIMVI
# Experiment: cell count relative to DMSO control; melanoma cells; higher = more viable cells
# Conditions: library dose: low library concentration; 72 h
# 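Further: cell number obtained by counting DAPI-stained nuclei in high-throughput microscope images with image analysis software, screen run in 1,536-well plates.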
row,SMILES,cell count [%]
1,"Cc1cn(-c2cc(NC(=O)c3ccc(C)c(Nc4nccc(-c5cccnc5)n4)c3)cc(C(F)(F)F)c2)cn1 [nilotinib] + C[C@]1(O)C[C@@H](c2nc(-c3ccc4ccc(-c5ccccc5)nc4c3)c3c(N)nccn32)C1 [OSI906] (first compound 0.2 µM, partner dose 0.4 µM)",88.9
2,"CC(C)C[C@H](NC(=O)[C@H](Cc1ccccc1)NC(=O)c1cnccn1)B(O)O [Bortezomib] + Nc1nc(F)nc2c1ncn2[C@@H]1O[C@H](CO)[C@@H](O)[C@@H]1O [fludarabine] (first compound 0.001 µM, partner dose 0.2 µM)",58.6
3,"COc1ccc(C2=N[C@@H](c3ccc(Cl)cc3)[C@@H](c3ccc(Cl)cc3)N2C(=O)N2CCNC(=O)C2)c(OC(C)C)c1 [Nutlin-3] + CNC(=O)c1cc(Oc2ccc(NC(=O)Nc3ccc(Cl)c(C(F)(F)F)c3)cc2)ccn1 [sorafenib] (first compound 0.1 µM, partner dose 0.4 µM)",86.4
4,"COc1ccc(C2=N[C@@H](c3ccc(Cl)cc3)[C@@H](c3ccc(Cl)cc3)N2C(=O)N2CCNC(=O)C2)c(OC(C)C)c1 [Nutlin-3] + COCC[n+]1c2c(n(Cc3cnccn3)c1C)C(=O)c1ccccc1C2=O [YM155] (first compound 0.1 µM, partner dose 0.0004 µM)",116
5,"COc1ccc(C2=N[C@@H](c3ccc(Cl)cc3)[C@@H](c3ccc(Cl)cc3)N2C(=O)N2CCNC(=O)C2)c(OC(C)C)c1 [Nutlin-3] + Nc1nc(F)nc2c1ncn2[C@@H]1O[C@H](CO)[C@@H](O)[C@@H]1O [fludarabine] (first compound 0.1 µM, partner dose 0.2 µM)",112
6,"COc1ccc(C2=N[C@@H](c3ccc(Cl)cc3)[C@@H](c3ccc(Cl)cc3)N2C(=O)N2CCNC(=O)C2)c(OC(C)C)c1 [Nutlin-3] + CC(C)C[C@H](NC(=O)[C@H](Cc1ccccc1)NC(=O)c1cnccn1)B(O)O [Bortezomib] (first compound 0.1 µM, partner dose 0.001 µM)",82
7,"CC(C)C[C@H](NC(=O)[C@H](Cc1ccccc1)NC(=O)c1cnccn1)B(O)O [Bortezomib] + CNC(=O)c1cc(Oc2ccc(NC(=O)Nc3ccc(Cl)c(C(F)(F)F)c3)cc2)ccn1 [sorafenib] (first compound 0.001 µM, partner dose 0.4 µM)",98.1
8,"Cc1cc(Nc2cc(N3CCN(C)CC3)nc(/C=C/c3ccccc3)n2)n[nH]1 + Nc1ccn([C@@H]2O[C@H](CO)[C@@H](O)C2(F)F)c(=O)n1 [gemcitabine] (first compound 0.04 µM, partner dose 0.0004 µM)",81.8
9,"CC(C)C[C@H](NC(=O)[C@H](Cc1ccccc1)NC(=O)c1cnccn1)B(O)O [Bortezomib] + Cc1nc(Nc2ncc(C(=O)Nc3c(C)cccc3Cl)s2)cc(N2CCN(CCO)CC2)n1 [dasatanib] (first compound 0.001 µM, partner dose 0.004 µM)",32.2
10,"COc1ccc(C2=N[C@@H](c3ccc(Cl)cc3)[C@@H](c3ccc(Cl)cc3)N2C(=O)N2CCNC(=O)C2)c(OC(C)C)c1 [Nutlin-3] + C[C@@H](Oc1cc(-c2cnn(C3CCNCC3)c2)cnc1N)c1c(Cl)ccc(F)c1Cl [Crizotinib] (first compound 0.1 µM, partner dose 0.2 µM)",142
11,"COc1ccc(C2=N[C@@H](c3ccc(Cl)cc3)[C@@H](c3ccc(Cl)cc3)N2C(=O)N2CCNC(=O)C2)c(OC(C)C)c1 [Nutlin-3] + OCc1c[nH]c2ccccc12 [Indole-3-carbinol] (first compound 0.1 µM, partner dose 0.8 µM)",82.5
12,"COc1ccc(C2=N[C@@H](c3ccc(Cl)cc3)[C@@H](c3ccc(Cl)cc3)N2C(=O)N2CCNC(=O)C2)c(OC(C)C)c1 [Nutlin-3] + CS(=O)(=O)CCNCc1ccc(-c2ccc3ncnc(Nc4ccc(OCc5cccc(F)c5)c(Cl)c4)c3c2)o1 [lapatinib] (first compound 0.1 µM, partner dose 0.8 µM)",81.3
13,"Cc1cn(-c2cc(NC(=O)c3ccc(C)c(Nc4nccc(-c5cccnc5)n4)c3)cc(C(F)(F)F)c2)cn1 [nilotinib] + CC(=O)c1c(C)c2cnc(Nc3ccc(N4CCNCC4)cn3)nc2n(C2CCCC2)c1=O [palbociclib] (first compound 0.2 µM, partner dose 0.04 µM)",104
14,"Cc1cn(-c2cc(NC(=O)c3ccc(C)c(Nc4nccc(-c5cccnc5)n4)c3)cc(C(F)(F)F)c2)cn1 [nilotinib] + CCN(CC)CCNC(=O)c1c(C)[nH]c(/C=C2\C(=O)Nc3ccc(F)cc32)c1C [sunitinib] (first compound 0.2 µM, partner dose 0.4 µM)",121
15,"Cc1cc(Nc2cc(N3CCN(C)CC3)nc(/C=C/c3ccccc3)n2)n[nH]1 + COc1ccc(Cl)c(Nc2nc3ccccc3nc2NS(=O)(=O)c2cccc(NC(=O)C(C)(C)N)c2)c1 [XL147] (first compound 0.04 µM, partner dose 0.8 µM)",93.5
16,"COc1ccc(C2=N[C@@H](c3ccc(Cl)cc3)[C@@H](c3ccc(Cl)cc3)N2C(=O)N2CCNC(=O)C2)c(OC(C)C)c1 [Nutlin-3] + NC1(c2ccc(-c3nc4ccn5c(=O)[nH]nc5c4cc3-c3ccccc3)cc2)CCC1 [MK2206] (first compound 0.1 µM, partner dose 0.4 µM)",46.5
17,"CC(C)C[C@H](NC(=O)[C@H](Cc1ccccc1)NC(=O)c1cnccn1)B(O)O [Bortezomib] + CS(=O)(=O)CCNCc1ccc(-c2ccc3ncnc(Nc4ccc(OCc5cccc(F)c5)c(Cl)c4)c3c2)o1 [lapatinib] (first compound 0.001 µM, partner dose 0.8 µM)",60.8
18,"CC(C)C[C@H](NC(=O)[C@H](Cc1ccccc1)NC(=O)c1cnccn1)B(O)O [Bortezomib] + C[C@]1(c2nc3c(C(N)=O)cccc3[nH]2)CCCN1 [Veliparib] (first compound 0.001 µM, partner dose 1.4 µM)",67
19,"Cc1cc(Nc2cc(N3CCN(C)CC3)nc(/C=C/c3ccccc3)n2)n[nH]1 + COCC[n+]1c2c(n(Cc3cnccn3)c1C)C(=O)c1ccccc1C2=O [YM155] (first compound 0.04 µM, partner dose 0.0004 µM)",95.7
20,"Cc1cn(-c2cc(NC(=O)c3ccc(C)c(Nc4nccc(-c5cccnc5)n4)c3)cc(C(F)(F)F)c2)cn1 [nilotinib] + CC(C)C[C@H](NC(=O)[C@H](Cc1ccccc1)NC(=O)c1cnccn1)B(O)O [Bortezomib] (first compound 0.2 µM, partner dose 0.001 µM)",92.7
21,"Cn1c(=O)n(-c2ccc(C(C)(C)C#N)cc2)c2c3cc(-c4cnc5ccccc5c4)ccc3ncc21 + CN1CCN(c2ccc3nc(-c4c(N)c5c(F)cccc5[nH]c4=O)[nH]c3c2)CC1 [Dovitinib] (first compound 0.004 µM, partner dose 0.1 µM)",89.3
22,"CC(C)C[C@H](NC(=O)[C@H](Cc1ccccc1)NC(=O)c1cnccn1)B(O)O [Bortezomib] + CCCS(=O)(=O)Nc1ccc(F)c(C(=O)c2c[nH]c3ncc(Cl)cc23)c1F [PLX4720] (first compound 0.001 µM, partner dose 0.08 µM)",63.1
23,"Cc1cn(-c2cc(NC(=O)c3ccc(C)c(Nc4nccc(-c5cccnc5)n4)c3)cc(C(F)(F)F)c2)cn1 [nilotinib] + OCc1c[nH]c2ccccc12 [Indole-3-carbinol] (first compound 0.2 µM, partner dose 0.8 µM)",124
24,"CC(C)C[C@H](NC(=O)[C@H](Cc1ccccc1)NC(=O)c1cnccn1)B(O)O [Bortezomib] + Cn1c(Nc2ccc(C(F)(F)F)cc2)nc2cc(Oc3ccnc(-c4ncc(C(F)(F)F)[nH]4)c3)ccc21 [CHIR265] (first compound 0.001 µM, partner dose 0.08 µM)",56.5
25,"Cc1cc(Nc2cc(N3CCN(C)CC3)nc(/C=C/c3ccccc3)n2)n[nH]1 + Cn1nnc2c(C(N)=O)ncn2c1=O [temozolomide] (first compound 0.04 µM, partner dose 2 µM)",130
26,"Cc1cn(-c2cc(NC(=O)c3ccc(C)c(Nc4nccc(-c5cccnc5)n4)c3)cc(C(F)(F)F)c2)cn1 [nilotinib] + Cn1nnc2c(C(N)=O)ncn2c1=O [temozolomide] (first compound 0.2 µM, partner dose 2 µM)",76.1
